Results taken from paper PMC4336329 (PLoS ONE, 2015).
Out of some 310,000 compounds screened, about 2,200 (0.71%) showed an effect of 50% or more. Effects have a minus sign here. Some of the results follow.

Target: human ether-à-go-go-related gene (hERG) potassium channel (human, UniProt Q12809)
Assay: primary screen, population patch clamp on CHO cells stably expressing hERG

Sequence of human ether-à-go-go-related gene (hERG) potassium channel (Q12809 whole entry, looked up): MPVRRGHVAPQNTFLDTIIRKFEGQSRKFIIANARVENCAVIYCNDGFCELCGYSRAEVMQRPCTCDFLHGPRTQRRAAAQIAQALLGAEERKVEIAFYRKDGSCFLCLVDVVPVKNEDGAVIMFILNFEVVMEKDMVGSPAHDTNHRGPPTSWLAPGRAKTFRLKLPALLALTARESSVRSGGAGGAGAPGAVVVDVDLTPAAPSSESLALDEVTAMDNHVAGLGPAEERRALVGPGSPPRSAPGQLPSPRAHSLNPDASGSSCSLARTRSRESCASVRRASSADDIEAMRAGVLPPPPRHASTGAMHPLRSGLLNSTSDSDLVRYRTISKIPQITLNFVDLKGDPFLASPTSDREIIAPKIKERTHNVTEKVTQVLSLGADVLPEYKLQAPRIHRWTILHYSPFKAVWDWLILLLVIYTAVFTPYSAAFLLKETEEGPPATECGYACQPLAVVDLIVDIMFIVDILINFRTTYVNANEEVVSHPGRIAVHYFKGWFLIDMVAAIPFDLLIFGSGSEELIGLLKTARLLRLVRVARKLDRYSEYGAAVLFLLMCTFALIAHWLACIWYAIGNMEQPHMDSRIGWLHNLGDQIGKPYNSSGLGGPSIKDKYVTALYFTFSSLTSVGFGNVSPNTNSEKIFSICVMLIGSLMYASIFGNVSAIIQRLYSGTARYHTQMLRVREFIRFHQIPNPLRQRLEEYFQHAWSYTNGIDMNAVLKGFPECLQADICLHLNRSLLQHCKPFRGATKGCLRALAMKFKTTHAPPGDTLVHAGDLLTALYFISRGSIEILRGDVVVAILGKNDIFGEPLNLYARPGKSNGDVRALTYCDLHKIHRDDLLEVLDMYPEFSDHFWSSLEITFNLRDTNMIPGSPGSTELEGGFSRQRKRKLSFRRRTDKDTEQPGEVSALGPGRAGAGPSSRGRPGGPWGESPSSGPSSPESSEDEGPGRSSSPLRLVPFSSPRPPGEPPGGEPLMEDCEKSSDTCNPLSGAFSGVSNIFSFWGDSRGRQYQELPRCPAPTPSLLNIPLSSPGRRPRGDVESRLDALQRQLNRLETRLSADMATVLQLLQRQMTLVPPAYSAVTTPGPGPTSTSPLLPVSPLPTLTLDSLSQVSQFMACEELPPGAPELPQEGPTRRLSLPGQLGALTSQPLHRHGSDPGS

Compound	hERG current change (%, negative = inhibition) at 1uM [%]
CC(=O)c1ccc(NC(=O)CSc2nc3[nH]ncc3c(=O)[nH]2)cc1	17.2
COc1ccc(/C(C)=N/N2C(C)CCCC2C)c(OC)c1 (stereo not shown)	9.4
CC1(OC(=O)c2ccco2)C(=O)C=C2C=C(c3ccsc3)OC=C2C1=O (stereo not shown)	9.06
O=C(N/N=C/c1cc([N+](=O)[O-])ccc1O)Nc1ccccc1	14.1
COc1ccccc1CNC(=O)Cn1nnc(-c2ccncc2)n1	4.09
Cc1nc(NC(C)C)c2oc3ccccc3c2n1.Cl	-8.88
Br.FC(F)(F)c1nnc2n1N=C(c1ccccc1)CS2	12.7
CC(C)CNC(=O)C1Nc2ccc(C(F)(F)F)cc2C2C=CCC12 (stereo not shown)	9.89
Cc1csc(NC(=O)CSc2nc(C)cs2)n1	7.16
CCOc1ccc(N(CC(=O)N2CCCCC2)S(=O)(=O)c2ccc(Cl)cc2)cc1	10.5
COc1ccc(C(=O)NNC(=O)Cc2ccc([N+](=O)[O-])cc2)cc1	13.5
C=CCNC(=O)CN1CCC(O)(c2ccc(F)cc2)CC1	5.88
CC(C)n1c(C(O)c2ccccc2)nc2ccccc21 (stereo not shown)	9.39
COC(=O)c1cc(OC)c(OC)cc1NC(=O)c1ccccc1C	11.3
CCC(c1nnnn1C1CCCC1)N1CCN(C(=O)c2ccco2)CC1.Cl (stereo not shown)	-2.67
O=C(Nc1c2c(nn1-c1ccccc1)CS(=O)C2)c1ccc(S(=O)(=O)N2CCOCC2)cc1 (stereo not shown)	15.1
Cc1cc(C)nc(NS(=O)(=O)c2ccc(NC(=O)NC3CCCCC3)cc2)n1	5.18
Cc1[nH]n(-c2ccc([N+](=O)[O-])cc2)c(=O)c1C=NCCN1CCN(C(=O)c2cccc(F)c2)CC1	-78
Brc1ccc(/C=N/Nc2nc3ccccc3o2)cc1	16
Cc1cc(N2CCN(c3cccc(C(F)(F)F)c3)CC2)n2nc(C)nc2n1	-18.7
CCc1ccc2nc(N(CCCN(C)C)C(=O)c3ccc(S(=O)(=O)N4CCc5ccccc5C4)cc3)sc2c1.Cl	5.61
Cl.Clc1cccc(CSc2nnc([C@@H]3CCCN3)o2)c1	-0.911
CC(C)(C)NC(=O)COC(=O)Cc1ccc(Cl)cc1	8.79
Cc1cc(F)ccc1NC(=O)CCc1c(C)nn(-c2ccc(N3CCCCC3)nn2)c1C	14.9
CCN(CC(=O)Nc1ccc2c(c1)CCC2)Cc1nc2ccccc2c(=O)[nH]1	-1.18
C#CCN1C(=O)S/C(=C/C=C/c2ccc(N(C)C)cc2)C1=O	18.8
Cc1ccccc1NC(=O)c1cccc(S(=O)(=O)N2CCOCC2)c1	0.392
O=C(Nc1nnc(/C=C/c2ccccc2)s1)c1ccco1	12.6

Compound	hERG current change (%, negative = inhibition) at 1uM [%]
CC(=O)Nc1ccccc1-c1nc2ccccc2nc1OCC(=O)c1ccc(Br)cc1	5.63
COc1ccc(NC(=O)[C@H](C)NC(=O)C2CCN(S(=O)(=O)c3ccc(C)cc3)CC2)cc1OC	8.39
Cn1c(C(=O)NCCCN2CCCC2=O)cc2c(=O)n(C)c3ccccc3c21	-0.935
CCN1CCN(CCCNC(=O)c2ccc3c(c2)N(Cc2ccc(C)cc2)CCS3)CC1	8.86
CN1CCN(S(=O)(=O)c2ccc(NC(=S)NC(=O)C3CCCCC3)cc2)CC1	6.49
COc1ccc(CCNC(=O)C2CC(c3cccc([N+](=O)[O-])c3)=NO2)cc1 (stereo not shown)	1.61
CCN(CC)C(=O)CSc1nnc(CCCCCNC(=O)OC(C)(C)C)o1	-6.38
O=C(Cc1nnc(NC(=O)c2ccccc2)s1)N/N=C/c1ccc(O)cc1	11.7
Cc1cc(C)n2[nH]c(=O)c(N=Nc3ccccc3)c2n1	15.4
O=S(=O)(c1ccc(NC(=S)NCc2ccco2)cc1)N1CCCC1	18.4
COc1ccc(CCn2c(=N)c(C(=O)NC3CCCCC3)cc3c(=O)n4ccccc4nc32)cc1	-84.1
CC(C)C[C@H](N)c1cn([C@@H](CCCCN)C(=O)N2CCNCC2)nn1.Cl	7.39
COC(=O)c1ccccc1NC(=O)Nc1cccs1	18.1
CC(C(=O)Nc1nc(-c2ccc(F)c(F)c2)cs1)N1C(=O)C2CC=CCC2C1=O (stereo not shown)	-3.18
CCCCn1c(N)c(N(CCOC)C(=O)c2cc(S(=O)(=O)N3CCCCC3)ccc2Cl)c(=O)[nH]c1=O	-0.133
Cn1ncc2c(Nc3cc(Cl)cc(Cl)c3)ncnc21	8.63
COC(=O)Cn1c(=O)c2c(nc3n2CCCN3CCc2ccccc2)n(C)c1=O	-6.51
COC(=O)CCc1ccc(OCC(O)CNC(C)C)cc1.Cl (stereo not shown)	0.474
COc1ccc(/C=C/C(=O)Nc2ccc(OC)nc2)cc1	0.889
CNCC/C=C1/c2ccccc2CSc2ccccc21.Cl	-0.0994
CCOc1ccccc1N1CN(Cc2ccccc2)CNC1=S	6.78
Cn1cnnc1SCC(=O)Nc1cccc(C(=O)O)c1	13.2
CCN(C(=O)CSc1nnc(-c2ccncc2)n1-c1ccccc1)C1CCS(=O)(=O)C1 (stereo not shown)	6.32
Cc1ccnc(NS(=O)(=O)c2ccc(NC(=O)CSc3nc(-c4ccccc4)cc(=O)[nH]3)cc2)n1	4.68
Cc1ccc(/C(O)=C2/C(=O)C(=O)OC2c2ccc(Cl)cc2)cc1 (stereo not shown)	16.5
Cc1ccccc1NS(=O)(=O)c1ccc(C(=O)N2CCN(S(=O)(=O)c3ccccc3)CC2)cc1	14.7
COC(=O)c1c(NC(=O)C2COc3ccccc3O2)sc2c1CCN(Cc1ccccc1)C2.Cl (stereo not shown)	-0.364
